Measured values as given in PubChem BioAssay AID504845 (National Center for Advancing Translational Sciences (NCATS), 2011).
“And” between values parts separate entries of the source, which are not always exact repeats. Identical values can stand only once. The campaign covered roughly 390,000 compounds. About 150 (0.038%) were called active. Inconclusive results, whose numbers are uncertain, are shown with a selection of clear calls. Calls follow the shape of the dose curve; as a rule, active = well fitted inhibition curve with a large enough effect; inconclusive = small, poorly fitted or top-dose-only effect; inactive = no such curve, though single readings can be large or run the other way. Potencies of inconclusive entries are doubtful fits and often do not repeat.

The molecules below were run against Regulator of G-protein signaling 4 (Homo sapiens) (UniProt P49798) (assay: Inhibitors of Regulator of G Protein Signaling (RGS) 4: qHTS). Conditions: Transcreener GDP fluorescence polarization, RGS4-accelerated GTP hydrolysis; series mostly up to 114 µM.
In short: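 MLSMR compounds (23 nl, pin-transferred) preincubated 10 min at room temperature with a 500nM (2x) first reagent, then RGS4 at 900nM (2x) plus Transcreener GDP mix added; fluorescence polarization (620/688 nm) read before and after 90 min at 30 °C.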
% is scaled to controls: 0 for no effect and ±100 for the full control effect; potency is read from the fitted curve at half-maximal effect; tags tell the direction and shape of the fitted curve.
Also: nearly all actives have a fitted effect of over 75% in size.

UniProt P49798, sequence (P49798 whole entry, looked up): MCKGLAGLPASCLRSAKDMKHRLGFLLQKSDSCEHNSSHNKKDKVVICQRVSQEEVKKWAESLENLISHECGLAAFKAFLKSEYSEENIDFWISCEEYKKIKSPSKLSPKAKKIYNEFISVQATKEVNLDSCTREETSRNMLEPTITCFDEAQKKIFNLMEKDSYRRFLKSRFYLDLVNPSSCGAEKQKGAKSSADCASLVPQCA

SMILES	Potency	activity change, negative = inhibition
COc1ccc(NC(=O)/C(C#N)=C\c2cc(C)n(-c3ccc4c(c3)OCO4)c2C)cc1	inactive	–
CCS(=O)(=O)Nc1ccc2c(c1)OCO2	inconclusive: 89.1 µM [inhibitor, single point]	–
COc1ccccc1C(=O)Nc1ccc(Cc2ccncc2)cc1	inactive	–
CCc1cc(C(=O)Cc2nc3ccccc3s2)c(O)cc1OCC(=O)O	inconclusive: 44.7 µM [inhibitor, partial curve, poor fit]	–
COc1ccc(Cn2c(/C=C/c3ccccc3)nc3ccccc32)cc1	inactive	–
Cc1ccc(C2C(C#N)=C(N)Oc3cc4c(cc32)OCO4)cc1 (stereo not drawn)	inconclusive: 89.1 µM [inhibitor, single point]	–
COC(=O)c1ccccc1NC(=O)NCc1ccncc1	inconclusive: 50.1 µM [inhibitor, partial curve, poor fit]	–
O=c1/c(=C\c2cccnc2)sc2nc3ccccc3n12	inconclusive: 89.1 µM [inhibitor, single point]	–
Cc1cc(Cn2nc(-c3ccccc3)cc2C(=O)NCc2cccc(C(F)(F)F)c2)on1	inconclusive: 20 µM [inhibitor, full curve, poor fit]	–
CCN(CC)C(=O)CSc1nc2cc3c(cc2c(=O)n1Cc1ccc(OC)cc1)OCO3	inconclusive: 17.8 µM [inhibitor, full curve, poor fit]	–
COc1ccc(CN(C)CC(=O)NCC(=O)Nc2c(C)cccc2C)cc1	inactive	–
CN(C)c1ccc(N=Nc2cccc(F)c2)cc1	inactive	–
COC(=O)c1ccc(NC(=O)COc2ccc(N(C)S(=O)(=O)c3ccc(C)cc3)cc2)cc1	inactive	–
Cc1ccc(C(=O)NC(=S)Nc2ccccc2C(F)(F)F)cc1	inconclusive: 70.8 µM [inhibitor, partial curve, poor fit]	–
O=C1CC(c2ccccc2)CC(O)=C1C=Nc1ccccc1 (stereo not drawn)	inconclusive: 56.2 µM [inhibitor, partial curve, poor fit]	–
O=C(CSc1nc(-c2ccc(F)cc2)nc2c1Cc1ccccc1O2)Nc1cccc(C(=O)O)c1	inconclusive: 100 µM [inhibitor, single point] and inconclusive: 50.1 µM [inhibitor, partial curve, poor fit]	–
COc1cccc(/C=N/NC(=O)Cn2cnc3c2c(=O)n(C)c(=O)n3C)c1	inconclusive: 50.1 µM [inhibitor, partial curve, poor fit]	–
Cc1ccc(/C=C/C(=O)N2CCCC(C(N)=O)C2)o1 (stereo not drawn)	inconclusive: 56.2 µM [inhibitor, partial curve, poor fit]	–
Fc1cccc(Cl)c1/C=N/Nc1c(Cl)cncc1Cl	inconclusive: 17.8 µM [inhibitor, full curve, poor fit]	–
COc1cccc(CN(CC2CCCO2)S(=O)(=O)c2ccc(S(=O)(=O)N(C)C)cc2)c1 (stereo not drawn)	inactive	–
CCN(C(=O)CSc1nc2cc(S(=O)(=O)N(CC)CC)ccc2o1)C1CCS(=O)(=O)C1 (stereo not drawn)	inconclusive: 31.6 µM [inhibitor, full curve, poor fit]	–
Cn1c(CN2CCOCC2)nc2cc(NC(=O)COc3ccccc3)ccc21	inconclusive: 100 µM [inhibitor, partial curve, poor fit]	–

SMILES	Potency	activity change, negative = inhibition
O=C1c2c(Br)c(Br)c(Br)c(Br)c2C(=O)N1c1ccccn1	inactive	–
NC(=O)C(=O)N/N=C/c1c2ccccc2cc2ccccc12	inactive	–
CC(O)CNC(=O)C(=O)Nc1c2c(nn1-c1ccc(Cl)cc1)CSC2 (stereo not drawn)	inactive	–
O=C(Nc1n[nH]c(=S)s1)c1ccco1	inconclusive: 50.1 µM [inhibitor, partial curve, poor fit]	–
CC(=O)c1ccc(N2CCN(C(=O)COc3ccccc3F)CC2)c(F)c1	inconclusive: 89.1 µM [inhibitor, single point]	–
CSc1ccccc1NC(=O)CSCc1ccc(C)cc1	inactive	–
O=C(O)Cn1c(SCc2ccccc2)nc2ccccc21	inactive	–
COc1cc(O)c(NC(C)=O)c2nonc12	inconclusive: 56.2 µM [inhibitor, partial curve, poor fit]	–
Cc1ccc(/C=N/Nc2nc(N3CCCCC3)nc(N3CCCCC3)n2)o1	inconclusive: 79.4 µM [inhibitor, partial curve, poor fit]	–
CCc1ccccc1OCC(=O)NC1CCCC1	inconclusive: 100 µM [inhibitor, single point]	–
Cc1cc(O)c(/C=N/Nc2ccccc2)c(=O)o1	inconclusive: 89.1 µM [inhibitor, single point]	–
COc1ccc(C2C(C(C)=O)=C(C)N=c3s/c(=C\c4cc(C)n(C)c4C)c(=O)n32)c(OC)c1 (stereo not drawn)	inconclusive: 50.1 µM [inhibitor, partial curve, poor fit]	–
O=C(CNC(=O)c1nc[nH]c1C(=O)N1CCc2ccccc2C1)OCc1ccccc1	inconclusive: 31.6 µM [inhibitor, full curve, poor fit]	–
Cc1ccc(C)c(NC(=S)NNC(=O)c2csc(C(C)C)c2)c1	inconclusive: 89.1 µM [inhibitor, single point]	–
CC(C)CCn1c(O)c(N=NC(=O)Cn2ccc(C(F)(F)F)n2)c2ccccc21	inconclusive: 50.1 µM [inhibitor, partial curve, poor fit]	–
CCc1ccc2[nH]c(=O)c(CN(CC3CCCO3)C(=S)NCc3ccco3)cc2c1 (stereo not drawn)	inconclusive: 70.8 µM [inhibitor, single point]	–
O=C(/C=C/c1ccco1)Oc1ccc(C(=S)N2CCOCC2)cc1	inconclusive: 28.2 µM [inhibitor, full curve, poor fit]	–
O=C(CCNC(=O)C1CCN(S(=O)(=O)c2ccccc2)CC1)NCc1ccc(Cl)cc1	inconclusive: 56.2 µM [inhibitor, partial curve, poor fit]	–
S=c1[nH]nc(-c2ccccn2)n1/N=C/c1cccs1	inactive	–
CCOc1ccc(NC(=O)C2CC(C)=C(C)CC2C(=O)O)cc1 (stereo not drawn)	inactive	–
O=C(O)c1ccc(N/N=C/c2cccc3nccnc23)cc1	–	inactive: -1.49% [at 11.4 µM]
